# Test results taken from PMC10726135.
# This is one part of the list. At the low end of the ranking the order means little. Measured with an extract: partners may take part in the binding.
# Target: T1, HNF4alpha2 (COS-7 nuclear extract) (UniProt P41235)
# T1 sequence: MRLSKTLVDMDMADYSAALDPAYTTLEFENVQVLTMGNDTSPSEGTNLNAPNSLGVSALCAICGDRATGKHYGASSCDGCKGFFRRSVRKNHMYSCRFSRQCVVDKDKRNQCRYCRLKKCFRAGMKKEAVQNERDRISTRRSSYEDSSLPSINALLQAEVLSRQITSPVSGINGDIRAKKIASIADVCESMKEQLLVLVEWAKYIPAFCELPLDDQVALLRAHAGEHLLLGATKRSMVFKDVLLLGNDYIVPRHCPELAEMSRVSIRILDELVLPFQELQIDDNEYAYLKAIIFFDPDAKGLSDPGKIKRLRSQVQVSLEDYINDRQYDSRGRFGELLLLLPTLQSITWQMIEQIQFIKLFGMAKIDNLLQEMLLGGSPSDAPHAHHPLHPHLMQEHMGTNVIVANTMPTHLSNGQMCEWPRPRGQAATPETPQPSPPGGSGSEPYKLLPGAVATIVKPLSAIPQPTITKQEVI
# Experiment: protein-binding microarray
# Settings: COS-7 nuclear extract on double-stranded Agilent 4x180k PBM; binding buffer, salt, pH and temperature not given; high values mean tight binding; double strand, one strand shown; sequences stand for … in …GCCTAGGGAGATTAGAGTATCGGTCGA
row,Sequence,binding signal (log2 normalized intensity)
1,AGGGGATTAGCATTTTTGTCTTTAACCCAA,0.413
2,TGCAGCAGGGGAATGGAGACACACCTGCGG,-1.11
3,TTATGCAGACCTTTGCCCTTTGTTTACATA,5.27
4,GATCAAGGCTCCCTGGCCACAGGAATGTGA,-1.05
5,GAGTCAACAGGCAGAAGAATGGATGAGCTA,-1.04
6,TCATTGTACAAACACATACCTTAAATAAGA,-0.486
7,CAGGGGTTAGGGTGAAGTAAAGTTATACTT,0.932
8,GATCAGAATCATAAAGCAGGGAGAGTTGCA,-1.05
9,GCACCCCGGGAGCGCCGAGCACGTCGAGCA,-1.07
10,CCTCCTCTCTGGGTCAAAGGTCATCGCACC,7.54
11,TATGTCTCTCCTATTCAGGTATTTGCTCTG,1.65
12,ATGGCTCAGCCTGGCTGTGTAGACATCACC,-1.09
13,TTCAGGACACCTTCAGGGCTGAGCCCACAG,-1.19
14,ATAAACCTGCCTACATCAAGAGGATTACAT,-0.99
15,TGACGGACAAAGGGCTCTCTCACCAGAAAA,-1.19
16,TCTCTGTCCCAAGAGCAAGAAGGTCAGAGG,1.92
17,TTCCAGTTTTGGAGAGGGGAACGATAAAAT,-0.842
18,TATCCCAAGACATCAATTAACTTGTCCTTT,2.45
19,CCTTTGCACCAGAGATAATATGCTTACTTA,0.0286
20,TTCACAGAGCAAGGGTCCAGATTAGAGCAC,2.17
21,ATGGCGACAAGAGTGACCTCTGGTCATTCA,3.83
22,GTTCAATGCTTCAGTGAGCCTTGACCTTCA,4.09
23,AGGCGGCGGCTCCGGGAGCTGGCGGCGCGG,-1.25
24,AGCAGGGCTAGACTTTAACCCCCTTGTCTT,4.76
25,ATAGGCGCGCGTGTGTGTGTGTGTGTGGTG,3.32

row,Sequence,binding signal (log2 normalized intensity)
1,GCAAGTCTCTTTTAGGCTGTCAGCCACCAA,-1.04
2,TGTTTTGAGGGTTAAAGGAGATAATGGGTG,1.51
3,CTGCTGCCCAAAGGTCACCTCTTCAGATAG,2.94
4,GCCCACACTGCCCATCCCCACTGAAAGTGT,3.06
5,TTACTATAGGTTCTACTCTCCCCAGTTCAA,3.24
6,CAGAGATAAGGTAGGCACGTAAATAAGGAT,-1.06
7,AGGGTCTTTGCAACTGTGTGTGGCCTGCAC,1.38
8,AATGCGCCTGGACAGATAAGAAGGGGTCAG,3.6
9,CCACTTTGTCCTTCACTTGTAGGAGACCTT,2.19
10,TATCATCAACATGCACTAGCAGTCCTATTT,-0.0628
11,ACCCCATTTTCCTAAAAATTATCTTTATCT,-1.15
12,CAAGTTGCAGGGATGGACTTTAATCTCCAA,5.02
13,AAAGTGGTAGCCCACAATCAGTCTGATTGG,-1.2
14,GTGTTTAACCTTTGGGTGTGTTCAGCGAGG,2.07
15,ACTAAAGTTCAGGAGGGAGGAGCATTTCAC,-1.06
16,TAGGCTGGACTCTGACCCATTCCTTCTCAC,4.33
17,CGGGCGCCCTGGTCTCTGCTACCTGTAGCT,-1.04
18,TTGTGATTTCCAAAAGGTACCACTGTTTGC,0.562
19,ACTGACCACAATTACTGAAGTTCCAGAGCC,-0.744
20,AACGGGGACGCTTTAGAGAAACGCACTCGC,-0.933
21,CAACTCCACGCCCGCCGCCAGGTGGCCGAG,-1.07
22,TCAGAACTTCACTCAGTGGGGTGTCTGTGT,2.09
23,AACAAGCAGCAAGGCCTGAATGAGCTCTGG,-1.09
24,CCAGCACTTCGACCTCACATTGTAGCTAAA,-0.928
25,TGGTCAGCTCCTGGGAGATGAGCTCTGAAC,0.907

row,Sequence,binding signal (log2 normalized intensity)
1,GGCAAGTGAGGGAGCCTAGATTAGATCAGA,-1.09
2,TAAGTTGGTTTACTTATGTCTCCAGAAACC,-0.431
3,GAGGGCTGCCAAAGCTCACAGATGTGGAAT,-1.11
4,CCCTCTCCTCCCTCGGCCGGCCCGGCAGCC,0.806
5,TGTTTATCTGCTGCCCTTCCCTCCACTATT,2.96
6,TTGCATGAAGCACAAAGGTTACTTGCTCCT,1.79
7,CAGCTTGGAATGTCAGGAACAACTTCGGGA,-1.01
8,TATGTACACTTGCCCTCTCACCAGAAGGGC,1.07
9,AAGGAAATCTCTTTTGTTTTTCTTCAAGGA,1.1
10,TTATGGAGGAATTTGGACTTTTACTCTTAG,3.61
11,GATGGACCAAAGGTCTTGTACAAAGGTCCT,3.11
12,AGCAGGTCAATAGGGCAGGGGGGAGATGAA,0.231
13,CGCAATGCATAGCAGAAACATAGAAAGGAG,-1.15
14,ATGGCACCCTTTTGTCAGGAAGTTCCCACA,-0.433
15,GACCTCAGGGGTCATCAGATAGATGGTCAG,2.53
16,GGACAAAGTTCGTGGAAAGTGGAAGAATGG,1.06
17,CTCACCCTAAGCCCTGCTCAGGGAATGTGG,-0.853
18,CGCGGAGCGGGGGACCGAGAGCCGCCGCCG,-1.19
19,GGTGAAGATTGGAAATGAATTGATAAACAC,-1.25
20,AAGTAGGGGCTGCTGGCATCTCATTACTGA,-1.14
21,CATCAGCCCTCCTAGCAAACAATGAGGACG,-1.16
22,AAGTCCCACGGCAACCTTCCTGGAAACCTT,-1.2
23,GCACCCCACCAAGGACTGGACCACCTCCTC,0.82
